# Experimental data: publication PMC4336329 (PLoS ONE, 2015)
# About 2,200 (0.71%) of roughly 310,000 compounds showed an effect of 50% or more. The effect is printed as a negative number. The list shows a part of the results.
# Target: human ether-à-go-go-related gene (hERG) potassium channel (human, UniProt Q12809)
# Assay: primary screen, population patch clamp on CHO cells stably expressing hERG
# human ether-à-go-go-related gene (hERG) potassium channel, sequence (Q12809 whole entry, looked up): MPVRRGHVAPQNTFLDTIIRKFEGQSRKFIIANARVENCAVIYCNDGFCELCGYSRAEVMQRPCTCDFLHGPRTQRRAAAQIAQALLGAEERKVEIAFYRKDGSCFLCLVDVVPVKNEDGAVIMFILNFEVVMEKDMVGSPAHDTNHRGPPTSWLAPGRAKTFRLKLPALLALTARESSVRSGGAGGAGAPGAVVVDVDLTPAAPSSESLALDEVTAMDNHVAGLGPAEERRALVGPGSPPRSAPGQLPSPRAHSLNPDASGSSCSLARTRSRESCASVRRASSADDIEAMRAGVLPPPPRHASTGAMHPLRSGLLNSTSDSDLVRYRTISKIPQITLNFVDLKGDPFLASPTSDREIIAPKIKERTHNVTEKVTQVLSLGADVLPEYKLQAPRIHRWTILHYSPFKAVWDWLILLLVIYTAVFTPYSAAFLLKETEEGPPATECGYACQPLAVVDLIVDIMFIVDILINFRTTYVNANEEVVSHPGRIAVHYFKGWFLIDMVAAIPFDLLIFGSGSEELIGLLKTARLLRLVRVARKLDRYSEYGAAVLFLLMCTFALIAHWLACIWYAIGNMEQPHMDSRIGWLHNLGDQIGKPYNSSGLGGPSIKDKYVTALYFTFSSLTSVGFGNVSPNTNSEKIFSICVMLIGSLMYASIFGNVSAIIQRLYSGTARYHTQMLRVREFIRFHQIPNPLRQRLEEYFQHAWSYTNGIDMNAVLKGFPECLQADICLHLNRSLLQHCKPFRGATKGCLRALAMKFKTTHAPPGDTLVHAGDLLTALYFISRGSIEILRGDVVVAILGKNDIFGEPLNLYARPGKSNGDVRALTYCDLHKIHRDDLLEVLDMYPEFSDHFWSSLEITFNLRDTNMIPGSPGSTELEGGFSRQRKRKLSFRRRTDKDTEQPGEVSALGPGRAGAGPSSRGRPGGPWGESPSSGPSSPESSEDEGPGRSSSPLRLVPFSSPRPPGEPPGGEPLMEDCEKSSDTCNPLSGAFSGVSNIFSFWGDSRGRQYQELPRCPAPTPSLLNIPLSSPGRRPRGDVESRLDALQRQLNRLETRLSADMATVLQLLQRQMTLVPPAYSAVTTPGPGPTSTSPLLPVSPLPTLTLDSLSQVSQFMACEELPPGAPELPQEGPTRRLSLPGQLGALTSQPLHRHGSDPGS
row,SMILES,"hERG current change (%, negative = inhibition) at 1uM"
1,N#CC(C#N)=Cc1ccc(OCC(=O)N2CCOCC2)cc1,2.49%
2,Cc1ccc(C(=O)NCCCNC(=O)Cc2ccccc2)cn1,16.2%
3,Cc1ccc(NC(=O)c2ccc(F)cc2F)cc1,11.1%
4,O=C(COC(=O)c1cccnc1Cl)NCCC1=CCCCC1,10.3%
5,O=c1c2ccccc2nnn1CSc1ccc2c(c1)OCCO2,1.76%
6,CC(=O)Oc1c(I)cc(I)cc1C(=O)Nc1ccc(Cl)cc1,16.3%
7,CCOc1ccccc1OCCOCCOc1ccccc1[N+](=O)[O-],5.55%
8,O=Cc1ccc(-n2cncn2)cc1,16.1%
9,O=C(O)c1ccccc1-c1ccc(/C=c2\sc3nc4cc(Br)cnc4n3c2=O)o1,17.6%
10,CC(=C/C(=O)O)/C=C/c1cccs1,8.88%
11,Cc1cc(C)c(C(=O)COC(=O)Cn2c(C)csc2=O)cc1C,5.67%
12,CCOC(=O)c1c(-c2ccc(OC)cc2)csc1NC(=O)CSc1ncnc2sccc12,-9.17%
13,Fc1ccccc1CCNc1c2c(nc3ncnn13)CCCC2,8.12%
14,Cn1cccc1Cc1nnc(SCC(=O)Nc2ccccc2)n1-c1ccc(F)cc1,-13.6%
15,CCOc1ccc(-c2cc(C(=O)O)c3ccccc3n2)c(OCC)c1,17.7%
16,COc1ccc(/C=C/C(=O)CC(O)(c2ccccc2)C(F)(F)F)cc1 (stereo not drawn),8.29%
17,N/C(=N\OC(=O)COc1ccc([N+](=O)[O-])cc1)c1cccnc1,6.39%
18,O=C(Nc1nccs1)C1(S(=O)(=O)c2ccc(Cl)cc2)CC1,5.54%
19,O=C(COc1ccc(C(=O)c2ccccc2)cc1)NCC(=O)Nc1ccccc1Br,4.33%

row,SMILES,"hERG current change (%, negative = inhibition) at 1uM"
1,c1ccc(CC(NCc2ccco2)c2ccccc2)cc1 (stereo not drawn),14.5%
2,COc1ccc(-c2noc(C(=O)NCc3ccccc3Cl)n2)cc1OC,3.53%
3,O=C(CSc1nc2ncccc2[nH]1)Nc1c(F)cc(F)cc1Br,14.6%
4,CCOC(=O)Cn1nnnc1CN(CCc1ccccc1)Cc1cc2cc(CC)ccc2[nH]c1=O,9.08%
5,COc1ccc(S(=O)(=O)N2CCCCC2)cc1NC(=O)[C@@H]1CCCN1C(=O)c1cccs1,3.66%
6,CCOC(=O)N1CCN(S(=O)(=O)c2ccc(F)c(C(=O)Nc3ccc(C)c(Cl)c3)c2)CC1,10.9%
7,O=C(/C(=C/c1ccc(Cl)cc1)c1nc2ccccc2[nH]1)c1ccccc1,7.29%
8,C=CCNC(=S)Nc1sc2c(c1C(N)=O)CCCC2,12.6%
9,CCOC(=O)C1=C(C)N(c2ccc(OC)cc2)C(=O)/C1=C\c1cccs1,4.07%
10,CNC(=S)N/N=C/c1cn(Cc2ccc(F)cc2)c2ccccc12,3.49%
11,CN(C)C(=O)CSc1ncnc2scc(-c3ccccc3)c12,4.5%
12,CCOC(=O)c1ccc(N2C(=O)CC(Sc3nc(C)cc(C)n3)C2=O)cc1 (stereo not drawn),16.6%
13,C#CCOc1coc(COC(=O)c2ccccc2)cc1=O,6.3%
14,COCC(=O)N(CCc1ccc(OC)c(OC)c1)Cc1cc2cc(C)ccc2nc1Cl,8.73%
15,Cc1c(C(=O)Nc2nnc(C(F)(F)F)s2)oc2ccccc12,9.97%
16,N#Cc1ccccc1OCC(=O)Nc1cccc(S(=O)(=O)N2CCCCCC2)c1,-8.66%
17,Cc1cc(C)nc(/N=C(\N)Nc2ccc(OCCC(C)C)cc2)n1,-55.9%
18,Cc1cc(=O)c(C(=O)O)nn1-c1ccccc1C(F)(F)F,7.89%
19,O=C(CSc1ncc(-c2ccccc2)n1C1CCCC1)N1CCc2ccccc21,11%

row,SMILES,"hERG current change (%, negative = inhibition) at 1uM"
1,O=Cc1cn(CCOc2ccccc2)c2ccccc12,11.9%
2,Cc1ccc(-n2c(SCc3ccc(C(=O)O)cc3)nnc2-c2ccncc2)cc1,11.3%
3,CCCn1nnc(NCc2ccc(OCc3cccs3)c(OC)c2)n1,12.4%
4,CCCCNC(=O)C1(NC(=O)Nc2ccccc2)CCCCC1,5.83%
5,CC(C)[C@H](NC(=O)OCc1ccccc1)C(=O)OCC(=O)NCCc1ccccc1,11.6%
6,COCCNC(=O)c1ccc2c(c1)nc(C)n2-c1cc(OC)c(OC)c(OC)c1,5.83%
7,O=C(C1CC1)N1N=C(c2ccccc2)CC1(O)C(F)(F)F (stereo not drawn),13.1%
8,Cc1cccc(NC(=O)COn2nnc3ccc(S(C)(=O)=O)cc32)c1,16%
9,Cn1c(=O)c2c(nc(NCC3CCCO3)n2Cc2ccccc2)n(C)c1=O (stereo not drawn),7.3%
10,COc1ccccc1C1(CCNS(=O)(=O)c2ccc(C)cc2)CCOC(C(C)C)C1 (stereo not drawn),15.8%
11,CCOC(=O)c1c(C)[nH]c(NC(=O)NNC(=O)c2ccccc2Cl)c1C,13.9%
12,COCCCNC(=O)/C(C#N)=C/c1c(N2CCCCCC2)nc2ccccn2c1=O,14.8%
13,Cc1onc(-c2c(Cl)cccc2Cl)c1C(=O)NCC1CCCO1 (stereo not drawn),14.4%
14,O=C(CCN1C(=O)/C(=C/c2ccc(Cl)cc2)SC1=S)Nc1ccc(C(=O)O)cc1,5.96%
15,NS(=O)(=O)c1ccc(S(=O)(=O)c2ccccc2)nc1,1.95%
16,O=Cc1cn(CC(O)CN2CCCCC2)c2ccccc12 (stereo not drawn),-6.34%
17,COc1ccc(S(N)(=O)=O)cc1C(=O)NCCCN1CCN(c2cccc(Cl)c2)CC1.CS(=O)(=O)O,-8.1%
18,COc1ccc(/C=N/NC(=O)c2ccco2)cc1Cn1nc(C)c([N+](=O)[O-])c1C,1.19%
19,COc1ccc(N2CCN(C(=O)C(=O)c3cn(CC(=O)N4CCOCC4)c4ccccc34)CC2)cc1,-0.408%
